Laboratory results as given in the antibiotic and cytotoxicity screens of Wong et al. (2023).
This is one part of the list.

What follows are compounds tested on HepG2 (assay: cytotoxicity call (relative viability < 0.9)). Settings: 10 µM.

Row | Structure (SMILES) | cytotoxicity call
1 | CC(C)CC#Cc1ccc2c(c1)O[C@H](CN(C)C(=O)c1ccccn1)[C@H](C)CN([C@@H](C)CO)S2(=O)=O | inactive
2 | CC1(C)CC(=O)c2c(C(F)(F)F)nn(-c3ccc(C(N)=O)c(N[C@H]4CC[C@H](OC(=O)CN)CC4)c3)c2C1 | active
3 | CON=C(C(=O)NC1C(=O)N2C(C(=O)[O-])=C(COC(N)=O)CSC12)c1ccco1.[Na+] (centres undefined) | inactive
4 | O=C(O)CCCCCCC(=O)Nc1ccc([C@H]2O[C@@H](CSc3nc(-c4ccccc4)c(-c4ccccc4)o3)C[C@@H](c3ccc(CO)cc3)O2)cc1 | inactive
5 | CCCN(C)C[C@H]1OCCCC[C@H](C)Oc2ccc(NC(=O)C3CCCCC3)cc2C(=O)N([C@H](C)CO)C[C@H]1C | inactive
6 | CC(C)NC(=O)Nc1ccc2c(c1)C(=O)N([C@@H](C)CO)C[C@H](C)[C@H](CN(C)C(=O)Nc1ccccc1)OCCCC[C@H](C)O2 | inactive
7 | C[C@@H]1CN([C@@H](C)CO)C(=O)Cc2cc(NC(=O)CCN3CCOCC3)ccc2O[C@@H]1CN(C)S(=O)(=O)c1cn(C)cn1 | inactive
8 | CC(C)NC(=O)N(C)C[C@@H]1Oc2ccc(NS(=O)(=O)c3ccccc3)cc2CC(=O)N([C@@H](C)CO)C[C@@H]1C | inactive
9 | C[C@H]1CCCCO[C@@H](CN(C)S(=O)(=O)c2ccccc2)[C@@H](C)CN([C@@H](C)CO)C(=O)c2cc(NS(C)(=O)=O)ccc2O1 | inactive
10 | COc1cccc(S(=O)(=O)N2C[C@H](O)COC[C@@H]3O[C@H](CC(=O)N4CCOCC4)CC[C@H]32)c1 | inactive
11 | C[C@@H]1CN([C@H](C)CO)C(=O)Cc2cc(NC(=O)CCCCCC(=O)Nc3ccccc3N)ccc2O[C@@H]1CN(C)Cc1ccc(C(F)(F)F)cc1 | active
12 | Cc1noc(C)c1NC(=O)N(C)C[C@H]1Oc2ccc(NS(=O)(=O)c3c(C)noc3C)cc2CC(=O)N([C@@H](C)CO)C[C@@H]1C | inactive
13 | C[C@H](CO)N1C[C@H](C)[C@@H](CN(C)S(=O)(=O)c2cccs2)OCCCC[C@H](C)Oc2ccc(NC(=O)Nc3cccc4ccccc34)cc2C1=O | inactive
14 | C[C@@H]1CN([C@H](C)CO)C(=O)Cc2cc(NC(=O)Nc3cccc4ccccc34)ccc2O[C@H]1CN(C)S(=O)(=O)c1ccc(Cl)cc1 | inactive
15 | Cc1noc(C)c1NC(=O)N(C)C[C@@H]1Oc2c(NC(=O)C3CCOCC3)cccc2C(=O)N([C@@H](C)CO)C[C@H]1C | inactive
16 | CCn1c2c(c3cc(C4CCCCC4)ccc31)CCCC2=O | inactive
17 | COc1cccc(NC(=O)N[C@H]2C=C[C@H](CC(=O)N3CCOCC3)O[C@H]2CO)c1 | inactive
18 | CC(C)NC(=O)N(C)C[C@@H]1Oc2ccc(NC(=O)CCC(F)(F)F)cc2CC(=O)N([C@@H](C)CO)C[C@@H]1C | inactive
19 | O=C(N[C@@H]1CC[C@H](CC(=O)N2CCOCC2)O[C@@H]1CO)c1ccccn1 | inactive
20 | COc1ccc(S(=O)(=O)N(C)C[C@H]2Oc3c(cccc3N(C)C)C(=O)N([C@@H](C)CO)C[C@@H]2C)cc1 | inactive
21 | COc1ccc(S(=O)(=O)Nc2cccc3c2O[C@@H](CN(C)C(=O)Nc2c(C)noc2C)[C@H](C)CN([C@H](C)CO)C3=O)cc1 | inactive
22 | NC(=O)c1nnc2ccc(Cl)cc2c1N | inactive
23 | CCOC(=O)N(C)C[C@@H]1OCc2cn(nn2)CCCC(=O)N([C@H](C)CO)C[C@@H]1C | inactive
24 | C[C@H](CO)N1C[C@H](C)[C@@H](CN(C)C(=O)Nc2ccc(C(F)(F)F)cc2)Oc2ccc(NC(=O)Cn3cnnn3)cc2C1=O | inactive
25 | O=C(C[C@@H]1C[C@@H]2c3cc(NC(=O)Cc4ccncc4)ccc3O[C@@H]2[C@@H](CO)O1)NCCc1ccccc1 | inactive

The compounds below were run on S. aureus RN4220 (assay: growth inhibition call (relative growth <= 0.2)). Settings: 50 µM.

Row | Structure (SMILES) | growth inhibition call
26 | C[C@@H]1CCCCO[C@H](CN(C)C(=O)Nc2ccc(C(F)(F)F)cc2)[C@@H](C)CN([C@H](C)CO)C(=O)c2cc(NS(=O)(=O)c3ccc(Cl)cc3)ccc2O1 | inactive
27 | NC(N)=Nc1nc(CSCCC(N)=NS(N)(=O)=O)cs1 | inactive
28 | O=C(C1=C(O)C(=O)N(c2nccs2)[C@H]1c1cccc(Oc2ccccc2)c1)c1ccc2c(c1)OCCO2 | inactive
29 | Cc1c(-c2cnccn2)ssc1=S | inactive
30 | CO[C@@H]1CN(C)C(=O)c2ccc(NS(C)(=O)=O)cc2OC[C@H](C)N(S(C)(=O)=O)C[C@H]1C | inactive
31 | CO[C@H]1CN(C(=O)c2ccnnc2)[C@H]2COC[C@@H]12 | inactive
32 | CC(C)NC(=O)Nc1ccc2c(c1)C(=O)N([C@@H](C)CO)C[C@@H](C)[C@H](CN(C)Cc1ccc3c(c1)OCO3)O2 | inactive
33 | C[C@H]1CCCCO[C@H](CN(C)Cc2ccc3c(c2)OCO3)[C@@H](C)CN([C@@H](C)CO)C(=O)c2cc(NS(=O)(=O)c3ccc(F)cc3)ccc2O1 | inactive
34 | N[C@H](C(=O)O)c1cc(O)cc(O)c1 | inactive
35 | Cc1cccc(NC(=O)CN2C(=O)CNC2=O)c1 | inactive
36 | O=C(C[C@H]1CC[C@H](NS(=O)(=O)c2ccc(F)cc2)[C@@H](CO)O1)NCc1ccc(Cl)c(Cl)c1 | inactive
37 | O=C(C[C@H]1CC[C@H]2[C@@H](COC[C@@H](O)CN2S(=O)(=O)c2ccc(Cl)cc2)O1)N[C@H]1CCN(Cc2ccccc2)C1 | inactive
38 | O=C(Cc1ccccc1)NCCN1CCOCC1 | inactive
39 | O=C(C[C@H]1CC[C@H](NS(=O)(=O)c2ccccc2F)[C@H](CO)O1)NCCCN1CCOCC1 | inactive
40 | CC(C)CC#Cc1ccc2c(c1)O[C@H](CN(C)C(=O)c1ccccn1)[C@H](C)CN([C@@H](C)CO)S2(=O)=O | inactive
41 | CC1(C)CC(=O)c2c(C(F)(F)F)nn(-c3ccc(C(N)=O)c(N[C@H]4CC[C@H](OC(=O)CN)CC4)c3)c2C1 | inactive
42 | CON=C(C(=O)NC1C(=O)N2C(C(=O)[O-])=C(COC(N)=O)CSC12)c1ccco1.[Na+] (centres undefined) | active
43 | O=C(O)CCCCCCC(=O)Nc1ccc([C@H]2O[C@@H](CSc3nc(-c4ccccc4)c(-c4ccccc4)o3)C[C@@H](c3ccc(CO)cc3)O2)cc1 | inactive
44 | CCCN(C)C[C@H]1OCCCC[C@H](C)Oc2ccc(NC(=O)C3CCCCC3)cc2C(=O)N([C@H](C)CO)C[C@H]1C | inactive
45 | CC(C)NC(=O)Nc1ccc2c(c1)C(=O)N([C@@H](C)CO)C[C@H](C)[C@H](CN(C)C(=O)Nc1ccccc1)OCCCC[C@H](C)O2 | inactive

Row | Structure (SMILES) | growth inhibition call
46 | C[C@@H]1CN([C@@H](C)CO)C(=O)Cc2cc(NC(=O)CCN3CCOCC3)ccc2O[C@@H]1CN(C)S(=O)(=O)c1cn(C)cn1 | inactive
47 | CC(C)NC(=O)N(C)C[C@@H]1Oc2ccc(NS(=O)(=O)c3ccccc3)cc2CC(=O)N([C@@H](C)CO)C[C@@H]1C | inactive
48 | C[C@H]1CCCCO[C@@H](CN(C)S(=O)(=O)c2ccccc2)[C@@H](C)CN([C@@H](C)CO)C(=O)c2cc(NS(C)(=O)=O)ccc2O1 | inactive
49 | COc1cccc(S(=O)(=O)N2C[C@H](O)COC[C@@H]3O[C@H](CC(=O)N4CCOCC4)CC[C@H]32)c1 | inactive
50 | C[C@@H]1CN([C@H](C)CO)C(=O)Cc2cc(NC(=O)CCCCCC(=O)Nc3ccccc3N)ccc2O[C@@H]1CN(C)Cc1ccc(C(F)(F)F)cc1 | inactive
51 | Cc1noc(C)c1NC(=O)N(C)C[C@H]1Oc2ccc(NS(=O)(=O)c3c(C)noc3C)cc2CC(=O)N([C@@H](C)CO)C[C@@H]1C | inactive
52 | C[C@H](CO)N1C[C@H](C)[C@@H](CN(C)S(=O)(=O)c2cccs2)OCCCC[C@H](C)Oc2ccc(NC(=O)Nc3cccc4ccccc34)cc2C1=O | inactive
53 | C[C@@H]1CN([C@H](C)CO)C(=O)Cc2cc(NC(=O)Nc3cccc4ccccc34)ccc2O[C@H]1CN(C)S(=O)(=O)c1ccc(Cl)cc1 | inactive
54 | Cc1noc(C)c1NC(=O)N(C)C[C@@H]1Oc2c(NC(=O)C3CCOCC3)cccc2C(=O)N([C@@H](C)CO)C[C@H]1C | inactive
55 | CCn1c2c(c3cc(C4CCCCC4)ccc31)CCCC2=O | inactive
56 | COc1cccc(NC(=O)N[C@H]2C=C[C@H](CC(=O)N3CCOCC3)O[C@H]2CO)c1 | inactive
57 | CC(C)NC(=O)N(C)C[C@@H]1Oc2ccc(NC(=O)CCC(F)(F)F)cc2CC(=O)N([C@@H](C)CO)C[C@@H]1C | inactive
58 | O=C(N[C@@H]1CC[C@H](CC(=O)N2CCOCC2)O[C@@H]1CO)c1ccccn1 | inactive
59 | COc1ccc(S(=O)(=O)N(C)C[C@H]2Oc3c(cccc3N(C)C)C(=O)N([C@@H](C)CO)C[C@@H]2C)cc1 | inactive
60 | COc1ccc(S(=O)(=O)Nc2cccc3c2O[C@@H](CN(C)C(=O)Nc2c(C)noc2C)[C@H](C)CN([C@H](C)CO)C3=O)cc1 | inactive
61 | NC(=O)c1nnc2ccc(Cl)cc2c1N | inactive
62 | CCOC(=O)N(C)C[C@@H]1OCc2cn(nn2)CCCC(=O)N([C@H](C)CO)C[C@@H]1C | inactive
63 | C[C@H](CO)N1C[C@H](C)[C@@H](CN(C)C(=O)Nc2ccc(C(F)(F)F)cc2)Oc2ccc(NC(=O)Cn3cnnn3)cc2C1=O | inactive
64 | O=C(C[C@@H]1C[C@@H]2c3cc(NC(=O)Cc4ccncc4)ccc3O[C@@H]2[C@@H](CO)O1)NCCc1ccccc1 | inactive
